Hit rate of the full screen: of about 390,000 compounds, about 930 (0.24%) were called active. Inconclusive results, whose numbers are uncertain, are shown with a selection of clear calls. Calls come from the whole dose curve; as a rule, active = well fitted activation curve with a large enough effect; inconclusive = small, poorly fitted or top-dose-only effect; inactive = no such curve, though single readings can be large or run the other way. Where the call is inconclusive, the potency comes from a doubtful curve fit.
Assay: qHTS for Suppressors of FUS Proteinopathy: Primary screen using FUS-linked yeast assay; note: nearly all actives have a fitted effect of over 55% in size;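 for growth rescue (activation): plate controls were DMSO vehicle for no effect and reference control for full effect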
Conditions: S. cerevisiae FUS-expressing, OD600, 24 h; Potency: growth rescue; growth rescue (activation): at 76.6 µM (top of the series)
In short: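 Toxicity suppression screen in FUS-yeast. Cells induced with 2% galactose, starting OD 0.005, treated 24hr at 30C with compounds at multiple final concentrations; growth by OD600.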
Potency is the fitted concentration of half-maximal effect; tags give direction and shape of the fitted curve.

| Structure (SMILES) | Potency | growth rescue (activation) |
| --- | --- | --- |
| CCCCC(NC(=O)Cc1c(C)c2cc3c(C)c(C)oc3c(C)c2oc1=O)C(=O)O (stereo unspecified) | inconclusive: 31.6 µM [activator, single point] |  |
| CCOC(=O)c1csc(NC(=O)C2CCCN(S(=O)(=O)c3ccc(Cl)s3)C2)n1 (stereo unspecified) | inconclusive: 31.6 µM [activator, partial curve, poor fit] |  |
| CCSc1nnc(N2C(=O)C(O)=C(C(=O)c3ccco3)C2c2cccc(OC)c2)s1 (stereo unspecified) | inconclusive: 50.1 µM [activator, single point] |  |
| O=C(Cc1cccc2ccccc12)NNC(=O)c1cccs1 |  | inactive: 28% |
| C#CCN(C[C@H]1[C@H](OC(=O)Nc2c(C)noc2C)[C@H](OC(=O)Nc2c(C)noc2C)C[C@H]2C(=O)N(c3ccccc3)C(=O)[C@@H]12)S(=O)(=O)c1ccc(C)cc1 | inconclusive: 44.7 µM [activator, single point] |  |
| Cc1ccc(NCc2nnc(SCc3ccc(C#N)cc3)n2Cc2ccco2)c(C)c1 | inconclusive: 44.7 µM [activator, single point] |  |
| N#CC1=C2N=C(N)c3c(sc4c3CCCCC4)N2C2=C(C(=O)CCC2)C1c1ccccc1 (stereo unspecified) | inconclusive: 39.8 µM [activator, partial curve, poor fit] |  |
| NC(=O)C1CCN(C(=O)N2c3ccccc3Sc3ccccc32)CC1 | inconclusive: 25.1 µM [activator, partial curve, poor fit] |  |
| CCOC(=O)c1c(NC(=S)Nc2cccnc2)sc(C)c1C |  | inactive: -20.3% |
| C=CCC[C@H](Cc1ccc(F)cc1)C(=O)OC[C@@H](Cc1c[nH]c2ccccc12)NC(=O)[C@@H](CC=C)CC(=O)NCCO | inconclusive: 28.2 µM [activator, single point] |  |
| COc1ccc(Nc2nc(N)c(C(=O)c3ccc(OC)cc3)s2)cc1 |  | inactive: 21.7% |
| CCc1cccc(C)c1NC(=O)c1cc(S(=O)(=O)N(C)Cc2ccccc2)ccc1F | inconclusive: 25.1 µM [activator, partial curve, poor fit] |  |
| Cn1cccc1CNC(=O)Nc1ccccc1 | active: 22.4 µM |  |
| Cc1c(C=O)c2ccccn2c1C(=O)c1ccc(F)cc1 |  | inactive: -5.58% |
| COc1ccc(CN2CCCN(CC(=O)Nc3cc(C)ccc3C)S2(=O)=O)cc1 |  | inactive: 24.7% |
| CCN(CC)S(=O)(=O)c1ccc(N2CCOCC2)c(NC(=O)Cc2ccccc2F)c1 | inconclusive: 8.91 µM [activator, partial curve, poor fit] |  |
| CCCCCCCCN1C(=O)[C@H](CC(=O)NCCC(C)C)C[C@@]2(C(=O)OC)CCCCC=C12 | inconclusive: 28.2 µM [activator, single point] |  |
| O=C1Nc2cc(S(=O)(=O)N3CCCC3)ccc2N2CCCC12 (stereo unspecified) | inconclusive: 35.5 µM [activator, partial curve, poor fit] |  |
| CC(=O)c1c(C)[nH]c(C(=O)CSc2nnc(C3CCCCC3)n2N)c1C | inconclusive: 39.8 µM [activator, partial curve, poor fit] |  |
| Cc1ccc(CNC(=O)c2ccc(N3CCC4(CC3)CC(c3cccc(Br)c3)=NO4)c(NC(=O)c3ccco3)c2)cc1 | inconclusive: 15.8 µM [activator, partial curve] |  |
| COc1ccc(-n2c(-c3ccccc3F)nc3c(cnn3-c3ccc(C)cc3)c2=O)cc1 | inconclusive: 17.8 µM [activator, partial curve, poor fit] |  |

| Structure (SMILES) | Potency | growth rescue (activation) |
| --- | --- | --- |
| CCOc1cc(Cn2c(-c3ccc(O)c(OCC)c3)nc3ccccc32)ccc1O | inconclusive: 14.1 µM [activator, partial curve, poor fit] |  |
| CN(C[C@H](Cc1ccccc1)N(C[C@@H](Cc1cccc2ccccc12)N(CCc1ccccc1)N=O)N=O)N=O | inconclusive: 28.2 µM [activator, single point] |  |
| C=CC[C@@H](CC(=O)N(CCO)Cc1ccccc1)C(=O)N[C@@H](COC(=O)[C@@H](CC=C)Cc1ccc(F)cc1)Cc1ccccc1 | inconclusive: 11.2 µM [activator, partial curve] |  |
| Cc1ccc2c(Sc3ccccc3)c(C(=O)NCc3ccccc3F)[nH]c2c1 |  | inactive: -22.7% |
| Cc1cc(C)cc(OCc2nnc(SCC(=O)Nc3ccccc3)o2)c1 | inconclusive: 8.91 µM [activator, partial curve, poor fit] |  |
| C=Cc1ccc(Cn2c(C)c(C(=O)NCc3ccc4c(c3)OCCO4)sc2=O)cc1 | inconclusive: 25.1 µM [activator, single point] |  |
| N#CC1=C(N)S[C@H](C(=O)C23CC4CC(CC(C4)C2)C3)[C@H]1c1ccncc1 | inconclusive: 39.8 µM [activator, single point] |  |
| CCCOc1cccc(C(=O)Nc2cc(-c3nc4ccccc4[nH]3)ccc2C)c1 | inconclusive: 50.1 µM [activator, single point] |  |
| COC(=O)CS(=O)(=O)c1cccc2cccnc12 |  | inactive: -1.61% |
| OCCCn1c(CCCNc2nc(-c3cccc(Br)c3)cs2)nc2cc(Cl)c(N3CCCCC3)cc21 | inconclusive: 28.2 µM [activator, partial curve] |  |
| CC(=O)Nc1ccc(-c2csc(NC(=O)c3ccc(C)o3)n2)cc1 | active: 28.2 µM |  |
| CCOc1ccc(OCc2ccc(C(=O)NC(C)C)o2)cc1 | inconclusive: 35.5 µM [activator, single point] |  |
| CCOc1ccc(CN2C(=O)c3ccccc3Sc3ccc(C(=O)NCc4ccc5c(c4)OCO5)cc32)cc1 | inconclusive: 3.55 µM [activator, full curve] |  |
| COc1ccc(C2C(C(=O)Nc3ccccc3)=C(C)Nc3nc(-c4ccccc4)nn32)c(OC)c1 (stereo unspecified) | inconclusive: 17.8 µM [activator, single point] |  |
| COc1ccc(C(=O)Nc2ccc(NC(=O)c3cccs3)cn2)cc1 |  | inactive: 24.8% |
| COc1cccc(-c2ccc3c(c2)O[C@H](CN(C)C(=O)c2ccccc2F)[C@H](C)CN([C@H](C)CO)S3(=O)=O)c1 | inconclusive: 50.1 µM [activator, single point] |  |
| COc1ccc(Cl)cc1-c1cc(C(=O)Nc2cc(OC)c(OC)c(OC)c2)[nH]n1 | inconclusive: 44.7 µM [activator, single point] |  |
| COc1ccc(C(=O)c2sc(NC(C)C)nc2N)cc1OC |  | inactive: 9.27% |
| O=c1[nH]c(C2CCN(S(=O)(=O)c3ccc(S(=O)(=O)NC4CC4)cc3)CC2)nc2c1nnn2Cc1ccc(F)cc1 | inconclusive: 35.5 µM [activator, single point] |  |
| CC(C)Cn1c(N)c(C(=O)NCC2CCCO2)c2nc3ccccc3nc21 (stereo unspecified) | inconclusive: 50.1 µM [activator, single point] |  |
| Clc1ccc(N2COC3c4cccc5cccc(c45)C32)cc1 (stereo unspecified) |  | inactive: 4.65% |

| Structure (SMILES) | Potency | growth rescue (activation) |
| --- | --- | --- |
| Cc1c(C(=O)NCc2cccc([N+](=O)[O-])c2)sc(=O)n1Cc1ccc(C(C)C)cc1 | inconclusive: 22.4 µM [activator, partial curve] |  |
| COC(=O)c1ccc(OCC2c3cc(OC)c(OC)cc3CCN2C(=O)c2ccc(OC)cc2)cc1 (stereo unspecified) | inconclusive: 50.1 µM [activator, single point] |  |
| C=CCC[C@@H](Cc1ccc(F)cc1)C(=O)OC[C@@H](Cc1c[nH]c2ccccc12)NC(=O)[C@H](CC=C)CC(=O)N(CCO)Cc1ccccc1 | inconclusive: 12.6 µM [activator, partial curve] |  |
| CCOC(=O)[C@]12CCC=C1N(Cc1ccc(Cl)cc1Cl)C(=O)[C@H](CC(=O)NCCCN1CCCC1=O)C2 | inconclusive: 22.4 µM [activator, partial curve, poor fit] |  |
| O=C(Nc1ccc([N+](=O)[O-])c(NC(=O)C2CCCO2)c1)C1CCCO1 (stereo unspecified) | inconclusive: 4.47 µM [activator, partial curve, poor fit] |  |
| CCOC(=O)c1c(C)[nH]c(C)c1S(=O)(=O)N1CCC(C(=O)NCc2ccc(F)cc2)CC1 |  | inactive: 32.5% |
| Cc1ccc(-c2ccnc3cc(C)nn23)cc1 |  | inactive: -31.1% |
| O=C(NCC1CCCO1)c1cc2c([nH]c3ccccc32)c(-c2cccc(Br)c2)n1 (stereo unspecified) | inconclusive: 35.5 µM [activator, single point] |  |
| Nc1nc(SCC(=O)Nc2cc(-c3ccccc3)nn2-c2ccccc2)n[nH]1 |  | inactive: -5.61% |
| COc1ccc(CCNC(=O)c2ccc(N(C)S(=O)(=O)c3ccc(C)cc3)cc2)cc1OC |  | inactive: 41.1% |
| COc1ccccc1N1CCN(S(=O)(=O)c2ccccc2F)CC1 |  | inconclusive: 62.2% [activator] |
| COc1ccc(/C=C\C(=O)NCc2ccc3c(c2)cc(C)n3C)cc1OC | inconclusive: 50.1 µM [activator, single point] |  |
| Cn1nnnc1SCCCNCc1cc(Br)ccc1OCc1ccccc1 |  | inactive: -10.3% |
| CCOC(=O)[C@@H]1[C@H]2COc3ccc(Br)cc3[C@H]2N2C(=O)N(c3ccc(OC)cc3)C(=O)[C@]12C | inconclusive: 25.1 µM [activator, partial curve, poor fit] |  |
| CCc1nc(C)cn1S(=O)(=O)c1cc(OC)c(C)cc1C |  | inconclusive: 62.8% [activator] |
| CC1(C)CC(C)(c2ccc(O)cc2O)N(c2ccc3ccccc3c2)C(=S)N1 (stereo unspecified) | inconclusive: 25.1 µM [activator, partial curve, poor fit] |  |
| O=C(O)c1cccc(-n2cccc2/C=C2\SC(=O)N(Cc3ccccc3F)C2=O)c1 | inconclusive: 11.2 µM [activator, single point] |  |
| Cc1oc(-c2ccccc2Cl)nc1CS(=O)CC(=O)N1CCN(c2cccc(C(F)(F)F)c2)CC1 (stereo unspecified) | active: 25.1 µM |  |
| CCOC(=O)N1CCN(C(=O)c2ccc3c(c2)N(Cc2cccc(Cl)c2)C(=O)c2ccccc2S3=O)CC1 (stereo unspecified) | inconclusive: 50.1 µM [activator, single point] |  |
